This passage reports binding signal results from PMC12136788.

The list shows a part of the results.

B1: chr1:39494564:39494565:+_ENSG00000168653_ENST00000372967|hu_hu|hu_hu_hu_mus_True|8_88 (ssRNA)
RNA: GGGAGUUCUACAGUCCGACGAUCAUGCAUUCGCCUCAUCGUUUUGUGCCGAAGCAAGCACUCUUCGAAGUCAUCGAACUCUAUCUUGCACUCCUUUUUCGCCCGGGUCCCACCGAUCCCGUGUGCACAUUCUAUCCACUCUUUCAACAGAGGAUUGAGCAUCA
B2: 125857629_125857749_267_5pUTR_ENSMUSG00000033904_ENSMUST00000106557|mouse|control|control (ssRNA)
RNA: GGGAGUUCUACAGUCCGACGAUCGAUCUCGUUUAUUUCCUGGGGUUUUGUGUAUCUUCUUCCACCAAAACGUAAACUCCAUAAGAACAGGUACCUUCUCAGUCUUGCUCACUGGUUCGCCAUGACACACAAUGGUGUCAGCACCAACAGAGGAUUGAGCAUCA
B3: chr11:86546118:86546119:-_ENSMUSG00000047126_ENSMUST00000103186|perfect_dup|motif|central (ssRNA)
RNA: GGGAGUUCUACAGUCCGACGAUCUGCAAAACAAAAUAACGUUGAUUCUUCUGCAUUUCCUUCCAUCUUAAACUGUGCAAAGCGGGCUGCAUGUCCUUCAAUGGGCUGAGACACUUUCCUAUCUACAGAAUAUAGCUGCAUAGCCAACAGAGGAUUGAGCAUCA
B4: chr11:106646565:106646566:-_ENSMUSG00000020719_ENSMUST00000021062|mus_hu|FALSE|FALSE (ssRNA)
RNA: GGGAGUUCUACAGUCCGACGAUCUCUGCUUCAUCAAGGACAAGGUAGGUUGUUCUUCUCAGAUUGGUUUUUCCACACUCUAAAAAGUCAAUCAGUCUUCCAGGUGUUGCAAUACAGAUUUCCACACCUCUCUCCAAAUCACGUCAACAGAGGAUUGAGCAUCA
B5: 100201843_100201963_4378_CDS_ENSMUSG00000052727_ENSMUST00000064762|mouse|control|control (ssRNA)
RNA: GGGAGUUCUACAGUCCGACGAUCAGAAACUGGGCUUUCUCUGUCUGGGAAGCCCUGCUUUCCAUUCUUCCCUUCAAAGGGGCUUUCGGAACGUCUGCCAAGAACCUUGCUAUCAGCACUCAGGAAGUCUUCAUAUGGGGACUCCAACAGAGGAUUGAGCAUCA
B6: chr14:54894545:54894546:-_ENSG00000100528_ENST00000216416|hu_hu|motif|central (ssRNA)
RNA: GGGAGUUCUACAGUCCGACGAUCCAUUUGGUGGCUUUUUGCAUGCACUUAACUGGACCAAUUCUUCUGUGUGUUGUUCGGAGAGCUCACCAAAACAUAGAUCAUGCCAUAUAGGUAGUAAAAAAAUGCUAGAAGAUAAAAAGCCAACAGAGGAUUGAGCAUCA
B7: chr7:65705475:65705476:+_ENSG00000169902_ENST00000304842|hu_hu|hu_hu_hu_mus_True|68_68 (ssRNA)
RNA: GGGAGUUCUACAGUCCGACGAUCUCUAUUCGGUGAUGGCACUCCAUGGCAUGCUGGCCCAGGUAAAACACAGUCACAGAACUAAUCACCAGACACGCCAAGAGUAAGUUCUGCUUCAGCUUCCCAACCAUCUUGAUGUGGUUACAACAGAGGAUUGAGCAUCA
B8: chr1:46159212:46159213:+_ENSG00000159596_ENST00000372025|hu_mus|hu_hu_hu_mus_True|48_48 (ssRNA)
RNA: GGGAGUUCUACAGUCCGACGAUCUCUGAUCCCUCCCAAGAAAGCUAGGAAACCGGCUCCAUAAGCCAUCUGAGUGAAAGCUAGGACGGGAAUAUAAGACUUUGUUAUUACCAUGAGAAGUGGGGGAGCAGUAAAGGGGAUUAACAACAGAGGAUUGAGCAUCA
B9: chr18:56819859:56819860:+_ENSG00000166562_ENST00000588875|hu_mus|hu_hu_hu_mus_True|68_78 (ssRNA)
RNA: GGGAGUUCUACAGUCCGACGAUCAACCUUGAUUACUCUGUGAACUAUCGGAAUGUCUCGUCCUUCAACUUUAAAAACAACUAUUUCACCAGCUCUGAUGGGGUCCUCCCGGAAAUUCGUGAGGAACAGCAGAUCUCCUCUGUGCAACAGAGGAUUGAGCAUCA
B10: chr5:138654669:138654670:+_ENSG00000015479_ENST00000502499|hu_hu|FALSE|FALSE (ssRNA)
RNA: GGGAGUUCUACAGUCCGACGAUCUUUCUUUAUUCUUUUAUACUUCUGGGAUAAAUGAACUCUCACUGGCUUGCCAAAUACUAACGCUGGUGUGGUUGUGUAAUAAUCCACUGCGGCCUGAGCAUCCUCUGUGGUUGCCAUUUCCAACAGAGGAUUGAGCAUCA
B11: chr1:21268426:21268427:-_ENSG00000075151_ENST00000400422|hu_mus|FALSE|FALSE (ssRNA)
RNA: GGGAGUUCUACAGUCCGACGAUCGUUCUCCUUGGCUGAUAAUUUUUCUCCAACUCCAUUCAUUUCAUUAAUUAGGAUAGUACUAGAAAUUAGCUGACUAUCAUGAGGCGCUACGCUACAGGGUUUCUUGCAUAUAUCACUGUUCAACAGAGGAUUGAGCAUCA
B12: 112303208_112303445_1358_CDS_ENSG00000064703_ENST00000369702|human|control|control (ssRNA)
RNA: GGGAGUUCUACAGUCCGACGAUCCAGUCUUACAAAAGUGGGAUCUCUCAUGUACUUUGUCAAAGCAUUAGCCAAAAAUUCGGGAUAAGUAGCUGAUACUGCCAGCAUCUGUUUACUGGCAGGCAAGGAAGAAUAAAUCCAAUUCAACAGAGGAUUGAGCAUCA
B13: chr2:5814250:5814251:-_ENSMUSG00000025816_ENSMUST00000102981|mus_hu|mus_mus_mus_hu_True|18_108 (ssRNA)
RNA: GGGAGUUCUACAGUCCGACGAUCUUCCUUUCAGGCUUCUGAAUUUCUGGUAGAACUGCACAGAAUGGUUUGAUAACUUCUAAAAAUUUGAUGCCCAUGGCUGCUGCUGGGGAGGCCCGGCGGGCACCCGCGGCCUCGGCGCUGCAACAGAGGAUUGAGCAUCA
B14: chr2:62099399:62099400:-_ENSG00000115484_ENST00000544079|hu_hu|FALSE|FALSE (ssRNA)
RNA: GGGAGUUCUACAGUCCGACGAUCGUAGGAUUCCAUACCACUCAGUGUUCGUGAAUAUUCAGUUAAUCGUAGGGCCAACUCUAUUUCUGGAGCACCACCUCCUGCAAUAAGAGCCCUCUUCUUCACUAAACAACGAAUAACACACAACAGAGGAUUGAGCAUCA

The experiment concerns the target T1, UNK ZnF1-3 (human, UniProt Q9C0B0 31-174).
T1 sequence: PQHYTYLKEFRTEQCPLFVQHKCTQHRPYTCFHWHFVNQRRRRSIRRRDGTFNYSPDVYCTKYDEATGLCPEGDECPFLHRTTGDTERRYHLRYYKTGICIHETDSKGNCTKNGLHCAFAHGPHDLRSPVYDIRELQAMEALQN
Description: nsRBNS (natural sequence RNA bind-n-seq); RBNS binding buffer (assumed for nsRBNS): 25 mM Tris pH 7.5, 150 mM KCl, 3 mM MgCl2, 0.01% Triton X-100, 500 ug/ml BSA, 20 U/ml SUPERase-In, 4 C; UNK is unkempt and MSI1 is Musashi-1; names of the RNAs are library labels; protein concentration not given here; high values mean tight binding.
For the molecule B1, the binding signal stood at 0.594 enrichment R. Take B2: the binding signal stood at 0.374 enrichment R. As for B3, the figure is 1.29 enrichment R; as for B4, 0.763 enrichment R. Molecule B5 displayed a binding signal of 0.648 enrichment R. Then B6, with 1.79 enrichment R. B7 returned a binding signal of 0.622 enrichment R.

Regarding B8, the binding signal turned out to be 1.75 enrichment R. Turning to B9, the binding signal stood at 0.73 enrichment R. B10 displayed a binding signal of 0.779 enrichment R.

For B11, the binding signal was found to be 1.15 enrichment R. Turning to B12, the binding signal worked out at 1.17 enrichment R.

As for B13, the binding signal is 0.975 enrichment R. Then B14, with 1.13 enrichment R.
